Data on 115 sequences can be found in the BET-seq Pho4 binding data (Le et al. 2018).

The list shows a part of the results. The energies were worked out here from pooled read counts, against the library average; single values are noisy.

The test addresses T1, Pho4 (S. cerevisiae) (UniProt P07270).
T1 sequence: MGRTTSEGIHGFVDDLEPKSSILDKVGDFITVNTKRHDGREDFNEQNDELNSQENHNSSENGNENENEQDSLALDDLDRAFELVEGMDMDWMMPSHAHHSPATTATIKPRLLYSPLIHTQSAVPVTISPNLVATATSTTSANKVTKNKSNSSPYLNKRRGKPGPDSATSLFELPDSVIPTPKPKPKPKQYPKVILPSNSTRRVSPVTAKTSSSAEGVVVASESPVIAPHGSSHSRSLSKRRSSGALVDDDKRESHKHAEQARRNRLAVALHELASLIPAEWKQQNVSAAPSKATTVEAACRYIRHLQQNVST
The test is described as follows: relative binding free energy (BET-seq); higher = weaker binding. The conditions noted are these: reference: library average.
For TGGTCCACGTGTTATG, the “relative binding free energy” value was determined as 0.01 kcal/mol. With TAGGTCACGTGGTTGC the figure was 0.04 kcal/mol.

On to GCATTCACGTGAAGGT, for which the “relative binding free energy” value came to 0.46 kcal/mol. The same measure for GTCTGCACGTGGTTAG: 0.03 kcal/mol. With AGTTACACGTGTTGTC the figure was 0.08 kcal/mol. On to TTTGACACGTGTAGAG, for which the “relative binding free energy” value amounted to 0.15 kcal/mol.

With AAGTGCACGTGAAATT, the “relative binding free energy” value turned out to be 0.27 kcal/mol. The same measure for ATTAGCACGTGGGTTT: -0.17 kcal/mol; for TCTTGCACGTGCAGTT: 0.06 kcal/mol; for AGGAGCACGTGGGGTA: -0.25 kcal/mol. For TTAAACACGTGTTTCT, the “relative binding free energy” value is -0.06 kcal/mol. With GTTTACACGTGCGGAT the figure was 0.3 kcal/mol; with GAGTTCACGTGGGACG, 0.27 kcal/mol; with TGGCTCACGTGTGGTG, 0.28 kcal/mol. With AGAAGCACGTGGGTAG the figure was -0.14 kcal/mol. The same measure for GTGAGCACGTGGTCGG: -0.04 kcal/mol; for GTATACACGTGGAAGT: 0.08 kcal/mol; for GGTTTCACGTGTTCAG: 0.08 kcal/mol. On to CTGATCACGTGGAGTG, for which the “relative binding free energy” value is 0.17 kcal/mol. The same measure for TATTTCACGTGTTAAG: 0.25 kcal/mol; for TTGACCACGTGGGGGT: -0.14 kcal/mol; for TATCGCACGTGGTTAA: -0.07 kcal/mol. The same measure for CAGAGCACGTGGTTGA: -0.03 kcal/mol; for TTGTACACGTGGCAGG: -0.19 kcal/mol.

GCTGTCACGTGCGGGG: the “relative binding free energy” value is 0.04 kcal/mol.

As for GGACTCACGTGTGTTT, the “relative binding free energy” value is 0.24 kcal/mol. With GTGGCCACGTGGGAGA the figure was -0.2 kcal/mol; with CGTGGCACGTGAGGGA, 0.19 kcal/mol. With GTAGGCACGTGCCGTG the figure was -0.24 kcal/mol; with GGGTGCACGTGCACGA, 0.05 kcal/mol; with TGTTACACGTGCATGA, 0.16 kcal/mol.

TGCATCACGTGTAGTG: the “relative binding free energy” value worked out at 0.02 kcal/mol.

In the case of TGGGCCACGTGCTGGT, the “relative binding free energy” value is -0.29 kcal/mol. Regarding TGGTTCACGTGTGATC, the “relative binding free energy” value stood at 0.33 kcal/mol. With GGAGTCACGTGATTCT the figure was 0.3 kcal/mol; with GGGTTCACGTGTAAAT, 0.5 kcal/mol. On to AGGGGCACGTGTTCAT, for which the “relative binding free energy” value is -0.2 kcal/mol. With CTGCACACGTGTTTGG the figure was 0.08 kcal/mol; with AAAATCACGTGTGGAT, 0.24 kcal/mol; with AGCTACACGTGGGGGT, -0.1 kcal/mol. Turning to TTTTTCACGTGCGTTC, the “relative binding free energy” value turned out to be 0.15 kcal/mol.

As to TTGAGCACGTGGTAGA, the “relative binding free energy” value is -0.12 kcal/mol. The same measure for CAGTGCACGTGGCGGT: -0.23 kcal/mol; for CAGGGCACGTGGGAGG: -0.21 kcal/mol; for ATAGGCACGTGAGGTC: 0.16 kcal/mol. With GGTAACACGTGCGGGA the figure was -0.09 kcal/mol; with GATGTCACGTGGTGCT, 0.07 kcal/mol; with TGTTTCACGTGTACAT, 0.13 kcal/mol. In the case of GGTTACACGTGTATGT, the “relative binding free energy” value was found to be 0.3 kcal/mol. With TAAGCCACGTGAGGGG the figure was 0.22 kcal/mol. With GACGTCACGTGGCGGG the figure was -0.08 kcal/mol; with TAGTTCACGTGGGGCC, 0.34 kcal/mol. With CGTTTCACGTGGTACT, the “relative binding free energy” value is 0.34 kcal/mol. With TTCGTCACGTGTAAGG the figure was 0.13 kcal/mol; with GTAAACACGTGAGTAT, 0.26 kcal/mol; with TTTTGCACGTGGCTTA, 0 kcal/mol. In the case of GAAAGCACGTGGGTCG, the “relative binding free energy” value is -0.14 kcal/mol.

Regarding TGGTACACGTGTTCTG, the “relative binding free energy” value was -0.02 kcal/mol. The same measure for TTTTTCACGTGGGGAG: 0.28 kcal/mol; for GGCTCCACGTGGGGTG: -0.19 kcal/mol. With AGGATCACGTGGTGTT the figure was 0.11 kcal/mol; with CGTGGCACGTGGTTAT, -0.17 kcal/mol; with ATTCACACGTGATTGG, 0.13 kcal/mol. The same measure for GATAACACGTGATGGG: 0.14 kcal/mol. Turning to GGCCTCACGTGGGATG, the “relative binding free energy” value stood at 0.27 kcal/mol. The same measure for AGGGCCACGTGTATGG: -0.09 kcal/mol; for CGATACACGTGTTTTG: 0.07 kcal/mol. The same measure for GGGCACACGTGATAGG: 0.2 kcal/mol; for GGTTGCACGTGCTGGA: -0.06 kcal/mol. As for GTGCTCACGTGAGGGG, the “relative binding free energy” value is 0.38 kcal/mol. The same measure for AATGTCACGTGGTAGA: 0.04 kcal/mol; for ATCTACACGTGAAGTG: 0.35 kcal/mol; for ATTGACACGTGCTATG: 0.01 kcal/mol. With ATATTCACGTGGTGAG the figure was 0.2 kcal/mol; with GGCTTCACGTGTTGCG, 0.24 kcal/mol; with TATGCCACGTGGCGGG, -0.25 kcal/mol. With TCTAGCACGTGTTGTT the figure was -0.01 kcal/mol. On to GGATCCACGTGGGGCG, for which the “relative binding free energy” value was -0.09 kcal/mol. The same measure for CTTGACACGTGAATGT: 0.22 kcal/mol. The same measure for GATCTCACGTGGTTGT: 0.11 kcal/mol; for ATGATCACGTGTATAG: 0.07 kcal/mol; for TTCTGCACGTGTTAAA: 0.04 kcal/mol. The same measure for AGATGCACGTGAGTTA: 0.2 kcal/mol; for CCTGTCACGTGGTGTT: 0.07 kcal/mol. Take TGTATCACGTGTGTCG: the “relative binding free energy” value was determined as 0.13 kcal/mol.

As for GTAGGCACGTGCCGGG, the “relative binding free energy” value was -0.23 kcal/mol. With TTATTCACGTGTGCTA the figure was 0.22 kcal/mol; with TCGGTCACGTGTGTGT, 0.1 kcal/mol; with TAATGCACGTGGTTAT, -0.07 kcal/mol. In the case of GTTGGCACGTGGGCTT, the “relative binding free energy” value was -0.15 kcal/mol. Regarding TAGATCACGTGTACTG, the “relative binding free energy” value stood at 0.23 kcal/mol. With TTTGACACGTGTGGAG the figure was -0.01 kcal/mol; with TGCTGCACGTGCGTTT, -0.15 kcal/mol. The same measure for TAGTACACGTGTACGT: 0.12 kcal/mol. With TTTAGCACGTGTTTCA, the “relative binding free energy” value was -0.14 kcal/mol. Regarding TTGTGCACGTGCAAGG, the “relative binding free energy” value was -0.05 kcal/mol. The same measure for TTTGACACGTGCTTTT: 0.04 kcal/mol; for GATGGCACGTGTAGGC: 0.11 kcal/mol; for GGAAGCACGTGTGTTG: 0 kcal/mol.

On to CGTTACACGTGGTGTG, for which the “relative binding free energy” value was -0.01 kcal/mol. For the sequence GTTGCCACGTGTGCGG, the “relative binding free energy” value is -0.11 kcal/mol.

Consider AGGATCACGTGGTTTA, for which the “relative binding free energy” value is 0.06 kcal/mol. With ATTTGCACGTGTGAAT the figure was 0.12 kcal/mol. TGTGTCACGTGTATCG: the “relative binding free energy” value turned out to be 0.1 kcal/mol. AGGAGCACGTGCTAGT: the “relative binding free energy” value was -0.21 kcal/mol. The same measure for TTTAGCACGTGAGTCT: 0.09 kcal/mol.

For AACGGCACGTGAGTTG, the “relative binding free energy” value turned out to be 0.13 kcal/mol. The same measure for GAGGACACGTGGTGCT: 0 kcal/mol; for CTTGGCACGTGCATTT: -0.07 kcal/mol.

With TGTTCCACGTGTGGAT, the “relative binding free energy” value came to 0.09 kcal/mol. The same measure for TCTTGCACGTGGTTGG: -0.02 kcal/mol; for TGGGACACGTGTCTGT: -0.1 kcal/mol; for AAAGGCACGTGAGTAT: 0.29 kcal/mol. The same measure for CTTGACACGTGTGTTG: 0.08 kcal/mol; for GTTGTCACGTGGACTG: 0.1 kcal/mol.
